# According to the supplement of paper PMC4604168 (melanoma cell lines):
# Some of the results follow. Most values come without repeats; read them as rough.
# Test system: COLO800
# Experiment: cell count relative to DMSO control; melanoma cells; higher = more viable cells
# Conditions: library dose: standard library concentration; 72 h
# 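Also: cells treated in 1,536-well plates, then fixed and DAPI-stained, with nuclei counted from automated high-throughput microscope images.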
row,Compound,cell count
1,"NC(=O)c1ccc(N(C(N)=O)c2c(F)cccc2F)nc1-c1ccc(F)cc1F + Cn1nnc2c(C(N)=O)ncn2c1=O [temozolomide] (first compound 2 µM, partner dose 10 µM)",89.7%
2,"CN(NC(=O)CC(=O)NN(C)C(=S)c1ccccc1)C(=S)c1ccccc1 + COc1ccc2c(c1)CCC1C2CCC2(C)C(NCCCCCCN3C(=O)C=CC3=O)CCC12 [U73122] (first compound 0.03 µM, partner dose 2 µM)",75.5%
3,"NC(=O)c1ccc(N(C(N)=O)c2c(F)cccc2F)nc1-c1ccc(F)cc1F + CN(NC(=O)CC(=O)NN(C)C(=S)c1ccccc1)C(=S)c1ccccc1 [STA4783] (first compound 2 µM, partner dose 0.03 µM)",12.2%
4,"Cc1ccc(NC(=O)c2cccc(N(C)C)c2)cc1NC(=O)c1ccc(O)cc1 + O=C(Nc1cccc(Cl)c1)Nc1ncc(CCNc2ncnc3ccsc23)s1 [SNS314] (first compound 10 µM, partner dose 0.004 µM)",51.1%
5,"CCCCCCCCc1ccc(CCC(N)(CO)CO)cc1 [fingolimod] + COC(=O)c1sccc1S(=O)(=O)Nc1ccc(Nc2ccccc2)cc1OC [GSK0660] (first compound 10 µM, partner dose 5 µM)",16.7%
6,"CCCCCCCCc1ccc(CCC(N)(CO)CO)cc1 [fingolimod] + CCCCCCCCCCCC1=C(O)C(=O)C=C(O)C1=O [Embelin] (first compound 10 µM, partner dose 6 µM)",28.1%
7,"NC(=O)c1ccc(N(C(N)=O)c2c(F)cccc2F)nc1-c1ccc(F)cc1F + CN1CCN(c2ccc3nc(-c4c(N)c5c(F)cccc5[nH]c4=O)[nH]c3c2)CC1 [Dovitinib] (first compound 2 µM, partner dose 0.5 µM)",83.2%
8,"CC(C)(C)c1cnc(CSc2cnc(NC(=O)C3CCNCC3)s2)o1 + NCC(=O)Nc1ccc(-n2nc(C(F)(F)F)cc2-c2ccc3c(ccc4ccccc43)c2)cc1 [OSU03012] (first compound 0.05 µM, partner dose 5 µM)",67.4%
9,"CCCCCCCCc1ccc(CCC(N)(CO)CO)cc1 [fingolimod] + NC1(c2ccc(-c3nc4ccn5c(=O)[nH]nc5c4cc3-c3ccccc3)cc2)CCC1 [MK2206] (first compound 10 µM, partner dose 2 µM)",12.5%
10,"CC(C)(C)c1cnc(CSc2cnc(NC(=O)C3CCNCC3)s2)o1 + Oc1cc(-c2nc(-c3ccccc3)[nH]c2-c2ccncc2)ccc1Cl [L779450] (first compound 0.05 µM, partner dose 1 µM)",54.1%
11,"CCc1ccc(CCOc2ccc(CC3SC(=O)NC3=O)cc2)nc1 (stereo unspecified) [pioglitazone] + Oc1nc(-c2ccc(C(F)(F)F)cc2)nc2c1CSCC2 [XAV939] (first compound 10 µM, partner dose 10 µM)",90.9%
12,"COc1cc2c(Oc3ccc4[nH]c(C)cc4c3F)ncnc2cc1OCCCN1CCCC1 [cediranib] + Cn1cc(/C=C2\C(=O)Nc3cccnc32)c2ccccc21 [GW441756] (first compound 2 µM, partner dose 2 µM)",61%
13,"CCCCCCCCc1ccc(CCC(N)(CO)CO)cc1 [fingolimod] + Cn1cncc1[C@@](N)(c1ccc(Cl)cc1)c1ccc2c(c1)c(-c1cccc(Cl)c1)cc(=O)n2C [tipifarnib] (first compound 10 µM, partner dose 0.05 µM)",22.4%
14,"CCc1ccc(CCOc2ccc(CC3SC(=O)NC3=O)cc2)nc1 (stereo unspecified) [pioglitazone] + Cc1cc([N+](=O)[O-])ccc1NS(=O)(=O)c1cc(Cl)ccc1Cl [FH535] (first compound 10 µM, partner dose 5 µM)",60.6%
15,"CCCCCCCCc1ccc(CCC(N)(CO)CO)cc1 [fingolimod] + COCC[n+]1c2c(n(Cc3cnccn3)c1C)C(=O)c1ccccc1C2=O [YM155] (first compound 10 µM, partner dose 0.002 µM)",9.53%
16,"NC(=O)c1ccc(N(C(N)=O)c2c(F)cccc2F)nc1-c1ccc(F)cc1F + O=C1NC(=O)/C(=C/c2ccc(-c3ccc(F)cc3O)o2)S1 [AS252424] (first compound 2 µM, partner dose 5 µM)",64.4%
17,"NC(=O)c1ccc(N(C(N)=O)c2c(F)cccc2F)nc1-c1ccc(F)cc1F + Cc1nc(Nc2ncc(C(=O)Nc3c(C)cccc3Cl)s2)cc(N2CCN(CCO)CC2)n1 [dasatanib] (first compound 2 µM, partner dose 0.02 µM)",79.5%
18,"CC(C)(C)c1cnc(CSc2cnc(NC(=O)C3CCNCC3)s2)o1 + COc1cc2c(Oc3ccc4[nH]c(C)cc4c3F)ncnc2cc1OCCCN1CCCC1 [cediranib] (first compound 0.05 µM, partner dose 2 µM)",57.1%
19,"Cc1ccc(NC(=O)c2cccc(N(C)C)c2)cc1NC(=O)c1ccc(O)cc1 + CO[C@@H]1[C@H](N(C)C(=O)c2ccccc2)C[C@H]2O[C@]1(C)n1c3ccccc3c3c4c(c5c6ccccc6n2c5c31)C(=O)NC4 [Midostaurin] (first compound 10 µM, partner dose 0.4 µM)",24.8%
20,"CCCCCCCCc1ccc(CCC(N)(CO)CO)cc1 [fingolimod] + Oc1nc(-c2ccc(C(F)(F)F)cc2)nc2c1CSCC2 [XAV939] (first compound 10 µM, partner dose 10 µM)",41.5%
21,"Cc1ccc(NC(=O)c2cccc(N(C)C)c2)cc1NC(=O)c1ccc(O)cc1 + CN(NC(=O)CC(=O)NN(C)C(=S)c1ccccc1)C(=S)c1ccccc1 [STA4783] (first compound 10 µM, partner dose 0.03 µM)",11.5%
